The text below walks through data of patent US20030065015A1 (priority 2001, published 2003).

Each structure is given as a SMILES string.

The conditions of the data set: extraction from a strongly acidic solution (1 M HCl). Here is the method:
To measure the partition coefficient for a facilitating anion in the presence of a quaternary ammonium compound, an acidified aqueous solution of the quaternary ammonium compound with a non-facilitating anion (e.g., tosylate, bromide or chloride) is first prepared. Sodium bicarbonate and a salt comprising the facilitating anion to be tested are then added to the aqueous solution. The salt comprising the facilitating anion should be added in an amount sufficient to provide a 1:1 molar ratio of the facilitating anion to the quaternary ammonium cation. The sodium bicarbonate is provided in an amount sufficient to produce a preselected pH value. An equal volume of n-octanol is then added to this solution. […] The mixture is centrifuged to separate an octanol layer and an aqueous layer, and the distribution ratio of the quaternary ammonium cation between the octanol-rich phase and the aqueous-rich phase (that is, the partition coefficient) may be measured. […]
Several formulations of the present invention were tested using an n-octanol/aqueous buffer system to measure the partition coefficients for the 2-PAM cation in the presence of the various facilitating anions. […] The mixture was centrifuged to separate an octanol layer and an aqueous layer, and the distribution ratio of the 2-PAM cation between the octanol-rich phase and the aqueous-rich phase (that is, the partition coefficient) was measured. […]

Consider `C[n+]1ccccc1/C=N/O` [2-PAM chloride, 2-[(hydroxyimino)methyl]-1-methylpyrdinium chloride], for which the partition coefficient entry was “around 0.01”.
